# Experimental data reported in publication PMC6919601, “Identification of Plasmodium dipeptidyl aminopeptidase allosteric inhibitors by high throughput screening” (PLoS ONE, 2019).
# About 230 (0.21%) of roughly 110,000 compounds showed an effect of 50% or more. This is one part of the list.
# Target: DPAP1 (Plasmodium falciparum, UniProt Q8IIJ9)
# Assay: primary screen, percent inhibition; read by cleavage of a fluorogenic dipeptide substrate; higher = more effect of the substance
# Design: species or system P. falciparum D10 trophozoite lysates; single well
# 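Further: 30 min substrate incubation versus DMSO and 10 µM JCP410 controls.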
# DPAP1, sequence (Q8IIJ9 whole entry, looked up): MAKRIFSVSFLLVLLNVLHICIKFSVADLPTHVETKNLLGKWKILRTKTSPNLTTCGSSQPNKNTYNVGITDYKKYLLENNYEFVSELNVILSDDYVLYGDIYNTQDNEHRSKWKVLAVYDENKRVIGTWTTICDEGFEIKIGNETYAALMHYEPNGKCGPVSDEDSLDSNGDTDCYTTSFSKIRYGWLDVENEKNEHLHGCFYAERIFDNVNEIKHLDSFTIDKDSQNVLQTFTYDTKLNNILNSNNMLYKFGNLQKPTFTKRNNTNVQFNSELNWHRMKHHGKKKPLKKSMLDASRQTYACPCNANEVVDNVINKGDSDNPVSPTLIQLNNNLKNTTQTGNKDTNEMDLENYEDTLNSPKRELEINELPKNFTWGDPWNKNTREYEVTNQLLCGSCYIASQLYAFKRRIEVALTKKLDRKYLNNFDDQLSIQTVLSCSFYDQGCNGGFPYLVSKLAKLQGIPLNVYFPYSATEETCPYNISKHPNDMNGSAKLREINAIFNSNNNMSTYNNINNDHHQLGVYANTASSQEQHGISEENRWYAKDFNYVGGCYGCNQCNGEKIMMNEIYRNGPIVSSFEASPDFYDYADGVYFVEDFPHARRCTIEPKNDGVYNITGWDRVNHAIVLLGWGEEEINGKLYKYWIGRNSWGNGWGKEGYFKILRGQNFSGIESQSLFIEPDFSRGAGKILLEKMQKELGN
row,SMILES,% Inhibition @ 10 uM [%]
1,Cc1ccc(C(=O)n2nc(-c3cccnc3)nc2NCc2ccc(F)cc2)cc1,3.81
2,CCCC1=C(C(=O)OCC)C2(C(=O)Nc3ccccc32)C(C(=O)OC(C)(C)C)=C(N)O1 (centres unmarked),2
3,Cn1nc(-c2ccc(C(=O)NCCN3CCOCC3)cc2)c2ccccc2c1=O,0.315
4,O=C(CCN1C(=O)c2ccccc2C1=O)NCc1ccccc1Cl,-1.99
5,Oc1[nH]c2ccccc2c1/C=N/Cc1ccco1,4.55
6,CCN1CCN(c2nc3c(c(=O)[nH]c(=O)n3C)n2CC(O)COC(C)C)CC1 (centres unmarked),2.31
7,c1ccc(CCNC2CCN(Cc3ccccc3)CC2)cc1,0.472
8,O=C(NCCC1=CCCCC1)c1cc(S(=O)(=O)N2CCCCC2)c[nH]1,-4.99
9,NC(=O)CC(N)C(=O)O (centres unmarked),3.66
10,Cc1csc(NC(=O)Cn2cc(S(=O)(=O)N3CCCC3)c(S(=O)(=O)N3CCCC3)c2)n1,3.2
11,Cc1sc(NC(=O)Cc2ccc(Cl)cc2)c(C(N)=O)c1C,12.6
12,Cn1c(=O)c2c(ncn2Cc2ccc(C(C)(C)C)cc2)n(C)c1=O,2.22
13,N#CC1=C2SCC(O)(c3ccco3)N2C(=O)CC1c1ccccc1F (centres unmarked),-1.74
14,CCOc1ccc(CNc2nc3nc(-c4ccccc4)cc(O)n3n2)cc1,-2.4
15,O=C(/C(=C/c1ccc(Cl)cc1)c1nc2ccccc2[nH]1)c1ccccc1,-1.59
16,Cc1ccc(S(=O)(=O)Nc2ncccn2)cc1,4.3
17,NC(=O)CSc1nccn1Cc1ccccc1,1.64
18,COCC(C)Nc1ncnc2c1c(-c1ccccc1)cn2-c1ccc(F)cc1 (centres unmarked),8.34
19,COc1ccccc1Cn1c(C(C)O)nc2ccccc21 (centres unmarked),-3.16
20,Cc1cc(C)c(C(=O)CC(N2CCCCC2)C(F)(F)F)c(O)n1 (centres unmarked),-2.92
21,CCN1CCN(c2nc3c(c(=O)[nH]c(=O)n3C)n2CC(O)c2ccccc2)CC1 (centres unmarked),2.31
22,CC1=NNC(=O)C1CCc1ccncc1 (centres unmarked),-3.53
23,CC1CCN(CCOCCOc2ccccc2F)CC1,-1.51
24,O=C(O)c1ccc(-n2c(S)nnc2Cn2ncc3ccccc3c2=O)cc1,-1.11
25,CCOc1ccc(-c2cc(C(=O)OC)nc3c2c(=O)n(C)c(=O)n3C)cc1,-4.07
26,CSc1ccc(CNC2=NS(=O)(=O)C(c3ccc(C(C)C)cc3)=C2C)cc1,-2.85
27,N=C(NOC(=O)c1ccc2nsnc2c1)c1ncon1,-3.53

row,SMILES,% Inhibition @ 10 uM [%]
1,CCc1ccc(CNC2=NS(=O)(=O)C(c3ccc(C(C)C)cc3)=C2C)cc1,2.27
2,Cc1cc(O)c(C2=Nc3ccccc3SC(c3cccs3)C2)c(=O)o1 (centres unmarked),4.57
3,CCOc1ccc(C(=O)Nc2nc3c(C)cccc3s2)cc1,-5.41
4,CCCCC(NC(=O)CCN1C(=O)c2ccccc2C1=O)c1ccccc1 (centres unmarked),-10.7
5,Oc1cc(O)c(-c2cc3ccccc3o2)cc1O,-3.09
6,CCc1ccc(OCC(=O)Nc2cc(OC)ccc2OC)c(Br)c1,-0.312
7,COc1ccc(-c2noc(CN(C(=O)Cc3ccc(-c4ccccc4)cc3)C(C)C)n2)cc1,-2.79
8,Cc1ccc(OCCCCc2c(C)n[nH]c2C)c(C)c1,-4.01
9,COc1ccccc1N(CC(=O)NCc1ccncc1)S(=O)(=O)c1ccc(C)cc1,-2.28
10,CCOc1ccc(-c2csc(/C(C#N)=C\c3ccc(C(C)C)cc3)n2)cc1,2.22
11,CCOc1ccc(S(=O)(=O)NCc2ccccn2)cc1C,-5.4
12,O=C(O)C1CCN(S(=O)(=O)c2ccccc2Cl)CC1,-1.31
13,CCc1nnc(NC(=O)Cc2ccc(Cl)cc2)s1,1.37
14,COc1ccc2c3c(cccc13)C(=O)N(C)C2=O,-2.03
15,COc1ccc(C(=O)NC(C)c2ccccc2)cc1OC (centres unmarked),0.467
16,Cc1ccc(NC(=O)NC2CCCCC2)c(Br)c1,2.48
17,O=C(NCc1cccs1)C1CCC(CNc2c(N3CCCCC3)c(=O)c2=O)CC1 (centres unmarked),2.84
18,CCOC(=O)c1c(-c2cccs2)csc1NC=O,-3.98
19,COc1ccc(C2C(C(=O)Nc3ccccn3)c3ccccc3C(=O)N2C)cc1 (centres unmarked),7.29
20,Cc1c(-c2ccccc2)sc2ncnc(O)c12,-4.18
21,CCOc1ccc(CNc2nc3ccccc3n3c(CC)nnc23)cc1OC,0.91
22,Cc1ccc(-c2noc(CCC(=O)NCc3ccc(F)cc3Cl)n2)cc1,-0.999
23,O=C(Cc1csc2ccccc12)NC1CCCCCC1,-0.0309
24,CCC[C@H](NC(=O)[C@H](CS(=O)(=O)NC1CCCCC1)NC(=O)OCc1ccccc1)C(=O)c1nc2ccccc2o1,-1.83
25,CC1(C)CC2=NN(C(=O)c3ccco3)C(c3ccccc3)C2CO1 (centres unmarked),-5.29
26,Cc1noc2ncnc(NCCc3ccc(S(N)(=O)=O)cc3)c12,-6.33
